# From the supplement of paper PMC3334620
# In all, about 33,000 sequences were measured (“E-score (-0.5 to 0.5)”: median about -0.016, highest 2% from about 0.32 on). Some of the results follow.
# Molecular target: T1, Stp1 (UniProt B3LFK1)
# T1 sequence: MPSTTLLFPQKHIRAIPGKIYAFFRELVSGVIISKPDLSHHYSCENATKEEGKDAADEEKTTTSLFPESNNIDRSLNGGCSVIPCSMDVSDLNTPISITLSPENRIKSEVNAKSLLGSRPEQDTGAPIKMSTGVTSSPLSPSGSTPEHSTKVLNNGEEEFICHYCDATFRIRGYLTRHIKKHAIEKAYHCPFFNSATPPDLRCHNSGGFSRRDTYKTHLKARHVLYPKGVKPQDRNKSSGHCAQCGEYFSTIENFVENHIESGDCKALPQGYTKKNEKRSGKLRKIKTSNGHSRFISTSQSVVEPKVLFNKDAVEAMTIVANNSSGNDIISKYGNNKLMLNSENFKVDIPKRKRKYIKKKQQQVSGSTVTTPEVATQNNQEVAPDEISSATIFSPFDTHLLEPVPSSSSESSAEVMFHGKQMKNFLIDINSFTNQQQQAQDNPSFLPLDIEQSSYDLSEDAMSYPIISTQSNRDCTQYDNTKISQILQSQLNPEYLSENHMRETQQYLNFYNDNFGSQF
# Experiment: PBM E-score (8-mer binding enrichment) (E-score (-0.5 to 0.5)); higher = stronger / more preferred TF binding; most listed sequences are background and not binding sites
# Conditions: protein concentration: 200 nM; construct: GST-full length
# Procedure: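 Universal 'all 10-mer' protein binding microarrays (Agilent AMADID 015681) probed with GST-tagged S. cerevisiae TFs (full-length or DBD) made by in vitro transcription/translation (PURExpress), about 100-200 nM. Bound TF was detected with fluorescent anti-GST. Each ungapped 8-mer (which stands for itself and its reverse complement) is scored by the PBM enrichment score (E-score), a modified Wilcoxon-Mann-Whitney statistic from -0.5 to +0.5, computed with the Universal PBM Analysis Suite. Scale: above 0.35 generally sequence-specific binding.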
row,Sequence,PBM E-score
1,ACTCCGTC,-0.169
2,AGAAAGCA,0.158
3,TGAAAACA,0.218
4,AACACAAG,0.0512
5,CTCCCGCA,0.0984
6,GACATCAA,0.00174
7,GGTAGTAC,-0.0938
8,ACCCACCC,-0.13
9,ACTTGTGA,-0.00935
10,AAGGTATG,0.0638
11,ATTCGAGA,0.0726
12,CTCAACAC,0.14
13,CAGGCGGC,0.3
14,CATATCGA,0.0637
15,GGTTGGGA,-0.157
16,AACACAGC,0.0278
17,CGGCTTGC,0.37
18,ATCTATAC,0.0531
19,CCACTCCC,-0.165
20,CTGACCCC,-0.379
21,ACCGTTGA,-0.134
22,CACTTCAG,-0.084
23,ACCGTACT,-0.0454
24,AATCCTCT,-0.232
25,ACACTTAT,0.025

row,Sequence,PBM E-score
1,CCGGATCA,0.0862
2,GTTGGCGA,0.0851
3,AATACGAT,0.0268
4,CCGATGCA,-0.136
5,ATACGCGA,-0.0124
6,ATACAGGG,0.051
7,CTCTACTA,0.0527
8,CAGTCTCG,-0.258
9,AGAAGAAG,-0.0809
10,CTCAGGCA,-0.0112
11,CCAGCTAG,-0.255
12,ATACCGCA,0.0172
13,CTGGTCCA,-0.166
14,CCTGTGCC,0.269
15,GATAGCGA,-0.19
16,CTTGCAAC,0.183
17,GCTGACAA,0.0719
18,AAAATCCC,-0.0359
19,AGTACGTG,-0.0504
20,ATCAACGC,0.172
21,GGTGCCCA,-0.0485
22,GCCGCAAC,0.366
23,ATACAGAG,0.0316
24,ACATCGGG,-0.321
25,GAACCTAC,-0.13

row,Sequence,PBM E-score
1,ACTTAGTA,0.175
2,CGCGGTCA,-0.0843
3,ACTTACAG,-0.0209
4,GTACTAGA,0.118
5,AAGCCTGA,-0.033
6,CATTCGTC,0.0341
7,CTAAGTCA,-0.00899
8,GGTTGGCA,-0.144
9,CTACGTGA,-0.264
10,CCCGAGAG,-0.169
11,CCCAACTA,-0.125
12,ATAGCTGC,0.102
13,GCGGGCAA,0.0705
14,AATTCGCC,0.206
15,AATCTAAC,-0.0282
16,TAACCATA,-0.0347
17,AGCATATC,0.0498
18,GCGTTTGA,0.0626
19,AATATTGT,0.216
20,ACTACGTA,0.055
21,ACACCATA,0.113
22,CCCATCTA,-0.169
23,ATGATCCA,-0.055
24,GATCCCAC,-0.0573
25,ATTTGCGC,0.182

row,Sequence,PBM E-score
1,AGTGTTAT,-0.0405
2,AATCTTAG,0.0858
3,TGGATCCA,-0.12
4,GGCGAAAC,0.157
5,GTAGATGA,0.0463
6,AAAGAGGG,-0.162
7,CTGCCATA,0.11
8,AGCGCTAC,-0.202
9,AACCATAC,0.0274
10,TGACTACA,0.0164
11,CAACTGCG,0.0222
12,CTCCCTCC,-0.256
13,GAGCAAAA,-0.0226
14,ATCCAGGA,-0.114
15,CACTACGC,-0.0748
16,AGATACTA,-0.0314
17,AGGCCCTA,-0.124
18,AGAGTCAC,-0.187
19,ACTAGTAA,0.0866
20,CACTTGGA,0.0573
21,CAGGTAGG,-0.11
22,GAACAGCC,-0.0958
23,ACATTCGG,-0.129
24,AATATTAT,0.199
25,CGTTAACC,0.0705

row,Sequence,PBM E-score
1,CGAAAACC,0.127
2,GACTGAAA,0.00466
3,AGCCATCA,-0.00725
4,GAGAAAGA,-0.0795
5,TCTAGGAA,-0.0515
6,ATACCATG,-0.0763
7,ACAAATCT,0.105
8,AGGAATAA,0.1
9,ACCTAAGA,-0.077
10,CCGATTTA,0.00012
11,ATGTATCC,-0.0581
12,GATGCGAA,0.12
13,ATTGGAAG,-0.113
14,GCACAATA,0.105
15,GGCTCGCA,-0.0457
16,ACCCTGCC,-0.211
17,CTGGTGAC,-0.232
18,GGAAAGCA,0.135
19,CAATAGTG,0.106
20,GGTGGAGA,-0.295
21,CAGATTGA,-0.0684
22,AGTAAGGG,-0.119
23,ATCTAGTG,-0.0846
24,AGAAACTG,0.0433
25,CTCCTGCC,-0.0537

row,Sequence,PBM E-score
1,GGCAATAA,0.177
2,CGACTTAA,-0.123
3,CGAACTGC,-0.0907
4,TGTCGAAA,0.0924
5,ACAAGACG,-0.152
6,CGCCTGGC,-0.0821
7,CATCCGTA,0.23
8,CCGCCAAG,-0.24
9,CACACGTG,0.231
10,GAGCACCA,-0.182
11,CAAGACTG,-0.14
12,AGGGGTGG,-0.205
13,GATCAAGC,-0.081
14,ACATGGTC,-0.131
15,CCTGAGCC,-0.0996
16,AAACCGCT,-0.0872
17,TCTTGGCA,0.0772
18,AATCTAAG,0.0303
19,AGTTTAAT,0.148
20,CTTGTACA,0.0194
21,ATTCACCA,-0.0152
22,CTACACCA,-0.0664
23,AAACGAGC,0.149
24,ACACGTCT,0.0505
25,CCAACATC,-0.127

row,Sequence,PBM E-score
1,GGGCAAAC,-0.249
2,TAGCCGGA,-0.0486
3,CCCAGAAA,-0.0554
4,AAGGCTAC,0.0499
5,ACCAAGCC,-0.104
6,AGTTGTGG,0.096
7,CTCGGCAC,0.3
8,ACGTGTGG,0.15
9,CGTTCTGC,0.173
10,CGGGAACA,0.0961
11,CCAAGCTA,-0.299
12,AAATAGAG,0.0948
13,GAAGAGTA,0.117
14,GACGCCAA,-0.17
15,AACGACAG,0.0109
16,CAGACTTA,-0.2
17,CGCGGTAG,0.0224
18,GCTACAGA,-0.185
19,CCTGACCA,0.0234
20,TGTGGCAA,0.193
21,GACTCCAA,-0.258
22,CAAGACTA,-0.241
